According to the supplement of paper PMC11876631:
± gives the standard deviation of the averaged measurements. Laboratory Escherichia coli strains with one amino-acid change in an essential protein, pooled on minimal glucose agar with carbenicillin or gentamicin at twice the control MIC (plus kanamycin and chloramphenicol for the plasmids), 48 h. Fold change of barcode share against drug-free plates; higher = less susceptible. Active = above 20 in both replicates (the paper's putatively resistant). '<' = one read or none on drug, '>' = one read or none on a drug-free plate. Shares are relative, so most strains fall below 1 when a few take over. Listed are strains with at least 15 reads on both drug-free plates, and hits; most hits rest on fewer reference reads. Replicate rank correlation about 0.5. Edits are read from barcodes.

B1: pabB V341W (protein)
chain: MKTLSPAVITLLWRQDAAEFYFSRLSHLPWAMLLHSGYADHPYSRFDIVVAEPICTLTTFGKETVVSESEKRTTTTDDPLQVLQQVLDRADIRPTHNEDLPFQGGALGLFGYDLGRRFESLPEIAEQDIVLPDMAVGIYDWALIVDHQRHTVSLLSHNDVNARRAWLESQQFSPQEDFTLTSDWQSNMTREQYGEKFRQVQEYLHSGDCYQVNLAQRFHATYSGDEWQAFLQLNQANRAPFSAFLRLEQGAILSLSPERFILCDNSEIQTRPIKGTLPRLPDPQEDSKQAVKLANSAKDRAENLMIVDLMRNDIGRVAVAGSVKVPELFVVEPFPAVHHLWSTITAQLPEQLHASDLLRAAFPGGSITGAPKVRAMEIIDELEPQRRNAWCGSIGYLSFCGNMDTSITIRTLTAINGQIFCSAGGGIVADSQEEAEYQETFDKVNRILKQLEK
B2: pabB L131W (protein)
chain: MKTLSPAVITLLWRQDAAEFYFSRLSHLPWAMLLHSGYADHPYSRFDIVVAEPICTLTTFGKETVVSESEKRTTTTDDPLQVLQQVLDRADIRPTHNEDLPFQGGALGLFGYDLGRRFESLPEIAEQDIVWPDMAVGIYDWALIVDHQRHTVSLLSHNDVNARRAWLESQQFSPQEDFTLTSDWQSNMTREQYGEKFRQVQEYLHSGDCYQVNLAQRFHATYSGDEWQAFLQLNQANRAPFSAFLRLEQGAILSLSPERFILCDNSEIQTRPIKGTLPRLPDPQEDSKQAVKLANSAKDRAENLMIVDLMRNDIGRVAVAGSVKVPELFVVEPFPAVHHLVSTITAQLPEQLHASDLLRAAFPGGSITGAPKVRAMEIIDELEPQRRNAWCGSIGYLSFCGNMDTSITIRTLTAINGQIFCSAGGGIVADSQEEAEYQETFDKVNRILKQLEK
B3: pabB F420P (protein)
chain: MKTLSPAVITLLWRQDAAEFYFSRLSHLPWAMLLHSGYADHPYSRFDIVVAEPICTLTTFGKETVVSESEKRTTTTDDPLQVLQQVLDRADIRPTHNEDLPFQGGALGLFGYDLGRRFESLPEIAEQDIVLPDMAVGIYDWALIVDHQRHTVSLLSHNDVNARRAWLESQQFSPQEDFTLTSDWQSNMTREQYGEKFRQVQEYLHSGDCYQVNLAQRFHATYSGDEWQAFLQLNQANRAPFSAFLRLEQGAILSLSPERFILCDNSEIQTRPIKGTLPRLPDPQEDSKQAVKLANSAKDRAENLMIVDLMRNDIGRVAVAGSVKVPELFVVEPFPAVHHLVSTITAQLPEQLHASDLLRAAFPGGSITGAPKVRAMEIIDELEPQRRNAWCGSIGYLSFCGNMDTSITIRTLTAINGQIPCSAGGGIVADSQEEAEYQETFDKVNRILKQLEK
B4: pabB F420A (protein)
chain: MKTLSPAVITLLWRQDAAEFYFSRLSHLPWAMLLHSGYADHPYSRFDIVVAEPICTLTTFGKETVVSESEKRTTTTDDPLQVLQQVLDRADIRPTHNEDLPFQGGALGLFGYDLGRRFESLPEIAEQDIVLPDMAVGIYDWALIVDHQRHTVSLLSHNDVNARRAWLESQQFSPQEDFTLTSDWQSNMTREQYGEKFRQVQEYLHSGDCYQVNLAQRFHATYSGDEWQAFLQLNQANRAPFSAFLRLEQGAILSLSPERFILCDNSEIQTRPIKGTLPRLPDPQEDSKQAVKLANSAKDRAENLMIVDLMRNDIGRVAVAGSVKVPELFVVEPFPAVHHLVSTITAQLPEQLHASDLLRAAFPGGSITGAPKVRAMEIIDELEPQRRNAWCGSIGYLSFCGNMDTSITIRTLTAINGQIACSAGGGIVADSQEEAEYQETFDKVNRILKQLEK
B5: pabB L131A (protein)
chain: MKTLSPAVITLLWRQDAAEFYFSRLSHLPWAMLLHSGYADHPYSRFDIVVAEPICTLTTFGKETVVSESEKRTTTTDDPLQVLQQVLDRADIRPTHNEDLPFQGGALGLFGYDLGRRFESLPEIAEQDIVAPDMAVGIYDWALIVDHQRHTVSLLSHNDVNARRAWLESQQFSPQEDFTLTSDWQSNMTREQYGEKFRQVQEYLHSGDCYQVNLAQRFHATYSGDEWQAFLQLNQANRAPFSAFLRLEQGAILSLSPERFILCDNSEIQTRPIKGTLPRLPDPQEDSKQAVKLANSAKDRAENLMIVDLMRNDIGRVAVAGSVKVPELFVVEPFPAVHHLVSTITAQLPEQLHASDLLRAAFPGGSITGAPKVRAMEIIDELEPQRRNAWCGSIGYLSFCGNMDTSITIRTLTAINGQIFCSAGGGIVADSQEEAEYQETFDKVNRILKQLEK
B6: pabB V341Q (protein)
chain: MKTLSPAVITLLWRQDAAEFYFSRLSHLPWAMLLHSGYADHPYSRFDIVVAEPICTLTTFGKETVVSESEKRTTTTDDPLQVLQQVLDRADIRPTHNEDLPFQGGALGLFGYDLGRRFESLPEIAEQDIVLPDMAVGIYDWALIVDHQRHTVSLLSHNDVNARRAWLESQQFSPQEDFTLTSDWQSNMTREQYGEKFRQVQEYLHSGDCYQVNLAQRFHATYSGDEWQAFLQLNQANRAPFSAFLRLEQGAILSLSPERFILCDNSEIQTRPIKGTLPRLPDPQEDSKQAVKLANSAKDRAENLMIVDLMRNDIGRVAVAGSVKVPELFVVEPFPAVHHLQSTITAQLPEQLHASDLLRAAFPGGSITGAPKVRAMEIIDELEPQRRNAWCGSIGYLSFCGNMDTSITIRTLTAINGQIFCSAGGGIVADSQEEAEYQETFDKVNRILKQLEK
B7: pabB V341D (protein)
chain: MKTLSPAVITLLWRQDAAEFYFSRLSHLPWAMLLHSGYADHPYSRFDIVVAEPICTLTTFGKETVVSESEKRTTTTDDPLQVLQQVLDRADIRPTHNEDLPFQGGALGLFGYDLGRRFESLPEIAEQDIVLPDMAVGIYDWALIVDHQRHTVSLLSHNDVNARRAWLESQQFSPQEDFTLTSDWQSNMTREQYGEKFRQVQEYLHSGDCYQVNLAQRFHATYSGDEWQAFLQLNQANRAPFSAFLRLEQGAILSLSPERFILCDNSEIQTRPIKGTLPRLPDPQEDSKQAVKLANSAKDRAENLMIVDLMRNDIGRVAVAGSVKVPELFVVEPFPAVHHLDSTITAQLPEQLHASDLLRAAFPGGSITGAPKVRAMEIIDELEPQRRNAWCGSIGYLSFCGNMDTSITIRTLTAINGQIFCSAGGGIVADSQEEAEYQETFDKVNRILKQLEK
B8: pabB F420D (protein)
chain: MKTLSPAVITLLWRQDAAEFYFSRLSHLPWAMLLHSGYADHPYSRFDIVVAEPICTLTTFGKETVVSESEKRTTTTDDPLQVLQQVLDRADIRPTHNEDLPFQGGALGLFGYDLGRRFESLPEIAEQDIVLPDMAVGIYDWALIVDHQRHTVSLLSHNDVNARRAWLESQQFSPQEDFTLTSDWQSNMTREQYGEKFRQVQEYLHSGDCYQVNLAQRFHATYSGDEWQAFLQLNQANRAPFSAFLRLEQGAILSLSPERFILCDNSEIQTRPIKGTLPRLPDPQEDSKQAVKLANSAKDRAENLMIVDLMRNDIGRVAVAGSVKVPELFVVEPFPAVHHLVSTITAQLPEQLHASDLLRAAFPGGSITGAPKVRAMEIIDELEPQRRNAWCGSIGYLSFCGNMDTSITIRTLTAINGQIDCSAGGGIVADSQEEAEYQETFDKVNRILKQLEK
B9: pabB F420W (protein)
chain: MKTLSPAVITLLWRQDAAEFYFSRLSHLPWAMLLHSGYADHPYSRFDIVVAEPICTLTTFGKETVVSESEKRTTTTDDPLQVLQQVLDRADIRPTHNEDLPFQGGALGLFGYDLGRRFESLPEIAEQDIVLPDMAVGIYDWALIVDHQRHTVSLLSHNDVNARRAWLESQQFSPQEDFTLTSDWQSNMTREQYGEKFRQVQEYLHSGDCYQVNLAQRFHATYSGDEWQAFLQLNQANRAPFSAFLRLEQGAILSLSPERFILCDNSEIQTRPIKGTLPRLPDPQEDSKQAVKLANSAKDRAENLMIVDLMRNDIGRVAVAGSVKVPELFVVEPFPAVHHLVSTITAQLPEQLHASDLLRAAFPGGSITGAPKVRAMEIIDELEPQRRNAWCGSIGYLSFCGNMDTSITIRTLTAINGQIWCSAGGGIVADSQEEAEYQETFDKVNRILKQLEK
B10: pabB F420Q (protein)
chain: MKTLSPAVITLLWRQDAAEFYFSRLSHLPWAMLLHSGYADHPYSRFDIVVAEPICTLTTFGKETVVSESEKRTTTTDDPLQVLQQVLDRADIRPTHNEDLPFQGGALGLFGYDLGRRFESLPEIAEQDIVLPDMAVGIYDWALIVDHQRHTVSLLSHNDVNARRAWLESQQFSPQEDFTLTSDWQSNMTREQYGEKFRQVQEYLHSGDCYQVNLAQRFHATYSGDEWQAFLQLNQANRAPFSAFLRLEQGAILSLSPERFILCDNSEIQTRPIKGTLPRLPDPQEDSKQAVKLANSAKDRAENLMIVDLMRNDIGRVAVAGSVKVPELFVVEPFPAVHHLVSTITAQLPEQLHASDLLRAAFPGGSITGAPKVRAMEIIDELEPQRRNAWCGSIGYLSFCGNMDTSITIRTLTAINGQIQCSAGGGIVADSQEEAEYQETFDKVNRILKQLEK
B11: pabB V341P (protein)
chain: MKTLSPAVITLLWRQDAAEFYFSRLSHLPWAMLLHSGYADHPYSRFDIVVAEPICTLTTFGKETVVSESEKRTTTTDDPLQVLQQVLDRADIRPTHNEDLPFQGGALGLFGYDLGRRFESLPEIAEQDIVLPDMAVGIYDWALIVDHQRHTVSLLSHNDVNARRAWLESQQFSPQEDFTLTSDWQSNMTREQYGEKFRQVQEYLHSGDCYQVNLAQRFHATYSGDEWQAFLQLNQANRAPFSAFLRLEQGAILSLSPERFILCDNSEIQTRPIKGTLPRLPDPQEDSKQAVKLANSAKDRAENLMIVDLMRNDIGRVAVAGSVKVPELFVVEPFPAVHHLPSTITAQLPEQLHASDLLRAAFPGGSITGAPKVRAMEIIDELEPQRRNAWCGSIGYLSFCGNMDTSITIRTLTAINGQIFCSAGGGIVADSQEEAEYQETFDKVNRILKQLEK

What follows are proteins tested against Escherichia coli (laboratory strain) (assay: barcode share on antibiotic plates over drug-free plates; higher = less susceptible). Details: antibiotic: carbenicillin; 2× MIC (3.1 µg/mL).
Protocol: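 A pool of E. coli strains, each edited to carry one amino-acid change in an essential protein, was grown for 48 h on minimal glucose agar with or without antibiotic; strain barcodes were sequenced; mean of two replicates.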

Question: For B1, which “fold change of barcode share” value is on record?
Answer: 0.707 ± 0.13

Question: For B2, which “fold change of barcode share” value is on record?
Answer: 1.45 ± 1.7

Question: Which “fold change of barcode share” value does the source give for B3 here?
Answer: 1.55 ± 0.13

Question: Which “fold change of barcode share” value does the source give for B4 here?
Answer: 0.674 ± 0.12

Question: For B5, which “fold change of barcode share” value is on record?
Answer: 0.393 ± 0.11

Question: Which “fold change of barcode share” value does the source give for B6 here?
Answer: 1.2 ± 0.65

Question: B7 was tested. Which “fold change of barcode share” value did it give?
Answer: 1.08 ± 0.49

Question: How did the “fold change of barcode share” value turn out when B8 was run?
Answer: 0.594 ± 0.017

Question: How did the “fold change of barcode share” value turn out when B9 was run?
Answer: 0.938 ± 0.26

Question: How did the “fold change of barcode share” value turn out when B10 was run?
Answer: 0.846 ± 0.11

Question: B11 was tested. Which “fold change of barcode share” value did it give?
Answer: 1.11 ± 0.15

Same assay, conditions: antibiotic: gentamicin; 2× MIC (MIC 0.45 µg/mL)

Question: How did the “fold change of barcode share” value turn out when B1 was run?
Answer: 0.0128 ± 0.0093

Question: How did the “fold change of barcode share” value turn out when B4 was run?
Answer: 0.00995 ± 0.0078

Question: Which “fold change of barcode share” value does the source give for B5 here?
Answer: < 0.0146

Question: How did the “fold change of barcode share” value turn out when B6 was run?
Answer: < 0.0112

Question: With B7 as the protein, how does the “fold change of barcode share” value read?
Answer: 0.0141 ± 0.0093

Question: Which “fold change of barcode share” value does the source give for B8 here?
Answer: 0.0106 ± 0.0044

Question: Which “fold change of barcode share” value does the source give for B9 here?
Answer: 0.01264 ± 4.6e-05

Question: Which “fold change of barcode share” value does the source give for B10 here?
Answer: 0.0227 ± 0.00057
